Data: the supplement of paper PMC12217912
The other results are listed elsewhere or left out. Sequences were assembled here from the parent chain. Inactive controls read about 0.05.

B1: TEV protease; numbered along this chain (parent)
chain: MGESLFKGPRDYNPISSSICHLTNESDGHTTSLYGIGFGPFIITNKHLFRRNNGTLVVQSLHGVFKVKDTTTLQQHLVDGRDMIIIRMPKDFPPFPQKLKFREPQREERICLVTTNFQTKSMSSMVSDTSCTFPSGDGIFWKHWIQTKDGQCGSPLVSTRDGFIVGIHSASNFTNTNNYFTSVPKNFMELLTNQEAQQWVSGWRLNADSVLWGGHKVFMVKPEEPFQPVKEATQL

Variants of: B1
Assay: raw area under fraction-flipped curve 0-4 h after induction (AUC4h, not background-subtracted), DNA-recorder readout of cleavage of the substrate (dimensionless); higher = more cleavage of the substrate by the protease variant
Conditions: temperature: 34 °C; time window: 0-4 h after rhamnose induction
Protocol: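 In vivo DNA recorder in E. coli TOP10(DE3) ΔrhaA at 34 °C. Each TEVp single-site mutant (parent TEVp 0) is paired with a single-site variant of the 7-mer TEVs (canonical ENLYFQ|S). The substrate sits between flexible linkers in a Bxb1-sfGFP-TEVs-SsrA fusion, so cleavage stabilises Bxb1 and speeds flipping of a recombination array, read by NGS. The value is the raw area under the fraction-flipped curve over 0-4 h after rhamnose induction (AUC4h), with ≥20 reads per time point. It is not background-subtracted; inactive controls average about 0.047.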
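Also: Bxb1 expression induced with 0.2% (w/v) L-rhamnose at OD600 near 0.5, cultures sampled hourly, flipped fraction per protease–substrate barcode pair counted by paired-end Illumina sequencing.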

Variant	area with substrate ENLYFCS	area with substrate ENLYFES	area with substrate ENLYFFS	area with substrate ENLYFHS	area with substrate ENLYFIS	area with substrate ENLYFLS	area with substrate ENLYFMS	area with substrate ENLYFNS	area with substrate ENLYFPS	area with substrate ENLYFRS
Q194C	0.0622	0.0568	0.0642	0.0478	0.0607	0.0707	0.0784	0.073	0.0495	0.0548
Q197I	0.0593				0.0521		0.0673	0.0619		
R204D	0.0535	0.064	0.0682		0.0612		0.0637		0.0628	0.0618
S201H	0.0619				0.0552	0.0655	0.0599	0.0845		0.0518
N193Q	0.0526	0.0605							0.053	0.0551
L211T	0.051									
K148L		0.0438	0.0549		0.0394		0.0741			
T181E	0.0994		0.0449	0.0566	0.0459		0.0548	0.0581	0.0624	0.0998
F180H	0.0526			0.0465	0.0543			0.0666		
G150Y	0.0645	0.0717	0.0566		0.0505	0.055	0.0612	0.0432	0.0683	0.0433
T174G		0.0634	0.0612		0.0474			0.0692	0.0686	0.0362
S209Y	0.0556	0.0663	0.048		0.0549		0.0799		0.0694	
T233W	0.0674	0.0653			0.065	0.0554	0.0567	0.0597	0.0649	
N116F		0.0523			0.0618		0.0574	0.0697	0.0448	0.0637
S154A	0.063	0.06	0.0663	0.0606	0.0616		0.0625		0.0619	0.0592
M125Y	0.0653			0.0607					0.0672	0.0514
N53L					0.0439			0.067	0.0648	0.0529
P93D		0.0626	0.0924	0.0547	0.0566		0.0579			0.0572
G166K					0.0522				0.0448	

Variant	area with substrate ENLYFCS	area with substrate ENLYFES	area with substrate ENLYFFS	area with substrate ENLYFHS	area with substrate ENLYFIS	area with substrate ENLYFLS	area with substrate ENLYFMS	area with substrate ENLYFNS	area with substrate ENLYFPS	area with substrate ENLYFRS
K185N	0.0614	0.0442			0.0531		0.0662	0.0677	0.0599	0.0519
K142N	0.0608	0.0642	0.0731		0.0579		0.0814		0.0968	
D149I			0.0478		0.0567		0.0643	0.055	0.0584	
P94V		0.0943	0.0748		0.0449		0.0708	0.0796	0.0446	
D91T			0.0676		0.0466		0.0578		0.0883	
K98R	0.0652	0.0734	0.0511		0.0477		0.0626	0.0684		0.0648
H215F	0.0577				0.0826		0.0608			
D137H	0.0596	0.0657	0.0733	0.0705	0.0616	0.0561	0.0676	0.0828	0.0582	
F187A	0.0511	0.0628	0.0668	0.0722	0.056	0.0557	0.0638	0.0587	0.0543	0.0556
F187G	0.0589	0.0594	0.0726		0.0515	0.0518	0.0525	0.0686	0.043	
E195L	0.0338			0.0566			0.0648		0.0699	
G214F	0.0649			0.0497			0.0609			
G2I		0.0682	0.0703	0.0524	0.0533			0.0607		
V113Y		0.0522	0.0076	0.0145	0.0527	0.115	0.0661		0.0606	
V113K	0.0566		0.0613	0.06	0.0487				0.0588	0.041
F95L				0.0827	0.0514					
N172P	0.0618		0.0642				0.0504	0.0789	0.055	
N172V	0.0553							0.0629	0.0567	

Same assay, conditions: temperature: 34 °C; time window: 0-4 h after rhamnose induction

Variant	area with substrate ENLYFSS	area with substrate ENLYFWS	area with substrate ENLYFDS	area with substrate ENLYFGS	area with substrate ENLYFKS	area with substrate ENLYFTS	area with substrate ENLYFVS	area with substrate ENLYFYS
Q194C	0.0509	0.0525						
Q197I			0.0665					
R204D	0.0589	0.0368		0.0757	0.0562	0.0509	0.0602	0.0843
S201H		0.055			0.0617		0.0497	
N193Q				0.0717				
K148L	0.0643	0.0557	0.0639	0.0489		0.0518		0.0568
T181E			0.0499					
F180H	0.0488			0.0842	0.0618	0.0526		
G150Y		0.0523	0.051		0.0558	0.0618		
T174G	0.0702	0.0721	0.0582	0.058		0.0523		
S209Y						0.0564		0.0717
T233W					0.0549	0.0626		
N116F	0.0636	0.0631	0.0161		0.0817	0.0793	0.0573	
S154A	0.0757		0.0578	0.062	0.0691	0.0575		
M125Y		0.0533				0.0556	0.0775	0.0604
N53L		0.0541	0.0555			0.0784	0.0734	
P93D	0.0458	0.0421	0.0861					

Variant	area with substrate ENLYFSS	area with substrate ENLYFWS	area with substrate ENLYFDS	area with substrate ENLYFGS	area with substrate ENLYFKS	area with substrate ENLYFTS	area with substrate ENLYFVS	area with substrate ENLYFYS
G166K			0.0532					
K185N		0.0565	0.1				0.0524	0.0419
K142N	0.071		0.0581		0.0708	0.0617		
D149I	0.0539		0.0663	0.0596		0.0517	0.0598	0.05
P94V	0.0908	0.047	0.0582	0.0619		0.0125		0.0587
D91T		0.0658	0.0915			0.0547		
K98R		0.0414		0.0529	0.0622	0.0534	0.0658	
H215F		0.0518			0.0592			
D137H					0.0583			
F187A		0.055	0.0512		0.0818		0.0398	
F187G	0.0574	0.0611		0.0445	0.0526	0.0471		0.0603
E195L				0.0601		0.0567		0.0637
G2I	0.0491	0.0428	0.0479			0.0573		
V113Y			0.0447		0.0421	0.0795		0.0549
V113K	0.0537			0.0447		0.0573	0.0622	
F95L			0.046	0.0821	0.068			
N172V	0.043							0.0596
